# In the supplement of paper PMC11417369:
# Some of the results follow.
# Test system: PfAP2-HC AP2 domain (GST-tagged)
# Assay: gcPBM binding intensity (ln(normalized median fluorescence intensity)); higher = stronger DNA binding
# Outline: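 GST-tagged P. falciparum DNA-binding domains, expressed in E. coli (about 25 μg on average), were applied for 1 h to an Agilent 4 × 180k array of primer-extended double-stranded 36-bp intergenic genomic probes plus negative controls. The binding buffer was 1× PBS with 1% milk, 0.2 mg/ml BSA, 0.5% salmon testes DNA and 0.03% Triton X-100. Bound protein was detected with Alexa488 anti-GST antibody and scanned at 488 nm. Binding intensity is the highest Masliner-normalised natural-log median intensity across replicate spots of either probe orientation.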
row,Sequence,gcPBM binding intensity (ln)
1,ATATCATAAATTTATGCATGTTCTTTCTTCAACTCT [TGCATGCA_site992],9.64
2,TTGAATAAATTGGAATAAATATAATAAAATAAGGAA [XGTACX_negctrl_site302],9.86
3,CATACATATATTATTGCACACATATAAAATACCCCC [CACACA_site9292],10.5
4,TACCAATAAATGAAGGTGCGTGCTTGCCTTTGCTAT,9.64
5,TAGGAATTTAATAAATGTACATATACATAATATATA [XGTACX_site3672],9.55
6,TTGTATAGTCTGATATGTACATATATATATATATAA [XGTACX_site4307],9.66
7,TATAAAAAATTAAAATTTTTCTTATTTTTTTTAGAT [TGCATGCA_negctrl_site125],9.2
8,ACCACCAGGAACAAAGCACATTAGGAAAAATAAAAC [XGTACX_negctrl_site228],9.96
9,TGGATACACAAAAATTAAAAAAATAAACAAACAAAT [GTGCAC_negctrl_site105],9.76
10,TCCTTACATTTTAAAACACACAAAAATTAATTGTTA [CACACA_site2313],9.52
11,AAAAAATAGTGGTATGCATGTCCCTTGTATTTTCTT [TGCATGCA_site587],9.63
12,TACTTTTATATGAATACACACAGGAATATAAATATG [CACACA_site7647],9.81
13,AAAATACCCATTTTAGTACACACTTAAAAAATTATT [CACACA_site8966],9.62
14,AGACCTATGATATATACACACATATATTTATTTATA [CACACA_site6630],9.9
15,TATATAACTAAAATAACACACATATATAAAAATATA [CACACA_site7416],9.88
16,ATTATAACACTTATTTCATTTGTATGCCCTTTAAAA [CACACA_negctrl_site955],9.62
17,TAATATTTCATTAGGTGTACACTACATAGTAGTAGA [XGTACX_site366],9.57
18,TATAAATATTTTATTGTACACACTTTTTATGAATGA [CACACA_site3136],9.65
19,GTTTGTTTGTTTGTTCGTACATATATAAAATAAAAA [XGTACX_site4731],9.52
20,TATGCAATATATTATATTCTGTAAATATTATATATT [TGCATGCA_negctrl_site67],9.56
21,TTTTTTAAAATATGGACACACATATATATATCTGTA [CACACA_site5535],9.62
22,TATATATTTTTTAATTGTACACTTCAAAAACAAAAA [XGTACX_site5595],9.34

row,Sequence,gcPBM binding intensity (ln)
1,ATAATCAACATTAGGTGTACAAAATATGTATGTTTT [XGTACX_site6696],9.85
2,GTAGTTATATTAAGGGTGCTTAATTAGATTAAACAA,9.59
3,AAAAACTTAATATTGACACACATTTTTAAGAATAAT [CACACA_site4291],9.72
4,ATTGAACACATCTATGCATGCACGGAAAAAAGTACA [TGCATGCA_site401],9.89
5,AGAATAAATAAATATTGTACATATAAAATATATATA [XGTACX_site896],9.72
6,TTCAAATTTCCACATACACACCTTGTAGATATATAT [CACACA_site7984],9.85
7,ATGCGTTTAGCAAAAAGTACATATATATATAATATT [XGTACX_site1928],9.57
8,ATATATATATATATTTGTACTTAATTGATTTTACTT [XGTACX_site2663],10
9,ATTATTGATTTATAAACACACACTCGAAGATGTTTA [CACACA_site8294],9.7
10,TTGAAATACTTTATTTGTACATATAGCAAAGTGTAT [XGTACX_site8782],9.59
11,ATTTTTTCTAGACATGCATGTGAAATTTACTTTTTT [TGCATGCA_site305],9.72
12,CTTTCTCTCAAAATGACATGCAATTTGTTTCTTTTT [TGCATGCA_site169],9.88
13,AAAAAAATATATAATAGTACATATATAGGAATATAT [XGTACX_site4591],9.76
14,TAATATCTTGAGTCATCACACATTGATTAATGAATC [CACACA_site5735],9.44
15,TGAATACAGATATTCACACAAATAGTTTTGATATAT [CACACA_site5527],9.59
16,AGTGGAAATTTTATTTGTACATAAATATTTACATAC [XGTACX_site633],9.5
17,CTTTTTTTTTTTTTTGCACACACATATATAAATATA [CACACA_site3950],10.1
18,ATTTTTTTTTAATGCAATATATTTTGAAAATTTTAT [CACACA_negctrl_site753],9.54
19,TTTTTTTTTTTTTTTACACACTTTATTCAAACAACT [CACACA_site4104],9.47
20,ATTGATACATCCAATACACACTACATATTATGATGT [CACACA_site6965],9.89
21,TTGGCATACAGACACACACACACACCCCCACATATA [CACACA_site590],10.9
22,AATTTATTAAAAAAATGTACTTATTTTTTTGTATAA [XGTACX_site5844],9.39

row,Sequence,gcPBM binding intensity (ln)
1,TTTTTTTTTTTTTTTTTTTTTTTTTCATATTAATAT [GTGCAC_negctrl_site351],9.04
2,AATATGGAATGAAATAACAATCGGGAGTATATTACC [CACACA_negctrl_site93],9.84
3,TATATATATGTTCTTACACACACGAATATATATATG [CACACA_site3304],9.92
4,ACATATTGTAGATATTGTACATATTGTGTATATATT [XGTACX_site7620],9.8
5,AATAGAATAATCCTTACACACACACCCACACGAATA [CACACA_site8053],10.4
6,AACCAATATGCGTATACACACATAAATATAAATATA [CACACA_site3780],9.95
7,TGTATAAAAAGAAAAAATCGTATGTGTTATCAAAAA [GTGCAC_negctrl_site490],9.58
8,AACCAGTTGATGTGTACACATATAGTAATAATTTTA [CACACA_site5564],9.89
9,GTATTAATTTTAAGGTGTACGCAAAAAATTTAATTT [XGTACX_site718],9.54
10,TTTTTTTTTTTTTGAACACACATTATTAATTTTTAT [CACACA_site308],9.63
11,ATATATTTTTTTTATACATGCAATGCATTTACGTTG [TGCATGCA_site565],9.99
12,TTTTTTATATATTAGGAATTTATAAAATTAGAAGGT [GTGCAC_negctrl_site617],9.55
13,TTATTATATACAAAATGTACACAGAATAATTTGAAT [XGTACX_site2314],9.62
14,ATATATATATATATATGTACATAATATATTATATAT [XGTACX_site924],9.68
15,TTTTTTTTTTTTTTGGTGCAGTTCACATATTATATA [GTGCAC_site9996],9.48
16,TTTTGAATATATTAAATAAATTAAAAATCTACAAAC [GTGCAC_negctrl_site622],9.36
17,AGATCATAATATTATACACACATTATATATCTGTAA [CACACA_site4925],9.81
18,TAATAAATTCAAAACATAAAAAGGAAAAAAAAAAAA [CACACA_negctrl_site1330],9.44
19,AAAATATTTAATAGAAGTACACATGTATATATACAT [XGTACX_site8942],9.77
20,TGTGTAAGCACATACAAACACACAACCTTATTTTTA [CACACA_site2187],9.88
21,TATATTAACAAAATGGTGCAATAATTTCTATATTGT [GTGCAC_site9430],9.58
22,TTATTATATTAAAAGAGGACACATTTATTTTTTTTT [XGTACX_site1241],9.41

row,Sequence,gcPBM binding intensity (ln)
1,AAGATTAAACATTGCACACAGAAATATATTTTCTAT [CACACA_site2374],9.81
2,TTTCAATGTGACACGTGTCCGTAAAATTACATAATT [XGTACX_site7073],9.7
3,ATTAATAAAAGATAAAGTACAAATCGGAAAATGAAT [XGTACX_site7846],9.94
4,ACAATGATAGTGTAAAGTACATATATATAAAAAAAT [XGTACX_site5928],10.2
5,TGAACTCATAGGAAAACACACATATGTGCAATATAT [CACACA_site6231],9.78
6,TGTTATTATTAAGACACACACACAAAAAAAAAAAAA [CACACA_site1481],10.5
7,TTTATAATATGTTATACATGCAGGTACCTTTTTGTA [TGCATGCA_site746],9.71
8,GAGAAATTTATACATACACACATATAAATATTATAG [CACACA_site7819],9.79
9,CTTTGCATTACGAACATACACACAGAATAACTGAAA [CACACA_site3024],9.88
10,TTTTTGTTAATAAGTATGCACTATCTCATTTTTGTA,9.67
11,ATATATTTTGGGGACTTTTTAAAAAAGAAGTATTAA [TGCATGCA_negctrl_site337],9.42
12,TTTCTATTACGAACGTGTACATACATTATTCTTAAA [XGTACX_site5816],9.3
13,TAGAAAAAAATAGATGCATGCAATGAATGAATAATA [TGCATGCA_site14],10.3
14,TAGTAGTATTCATCCAGTACATATAAATGTATAATA [XGTACX_site7552],9.64
15,CTATACTATGAAAAGTGTACGAATAGCTAGCTATTT [XGTACX_site5927],9.67
16,GAGCATTACACATATACACACATATAAATAAACATA [CACACA_site7315],10.2
17,TTCTTTTTTTTTTTTTTTTTTTTATAGTACAAAAAA [TGCATGCA_negctrl_site450],9.4
18,ATATCAAATAGACAAACACACAAAGGAAGAGTGAAA [CACACA_site3921],10.2
19,ATCTATATTATTTCTACACACATATCTATAATATGT [CACACA_site7561],10.2
20,TTTTTTTTTTTGTGTGCATGTGCTAGGAAAGGTAGG [TGCATGCA_site330],9.65
21,AATAATATATAAGAAAGTACAAAAAAATAAAATAAA [XGTACX_site3302],9.74
22,TTTTAATGAAATATCAAAAAAATTTATGATTTCAAA [GTGCAC_negctrl_site662],8.97
